According to PMC12820563, “FoxP3 forms a head-to-head dimer in vivo and stabilizes its multimerization on adjacent microsatellites”:
This is one part of the list.

Target: T1, MBP-FoxP1dN (Mus musculus, UniProt P58462 326-579)
T1 sequence: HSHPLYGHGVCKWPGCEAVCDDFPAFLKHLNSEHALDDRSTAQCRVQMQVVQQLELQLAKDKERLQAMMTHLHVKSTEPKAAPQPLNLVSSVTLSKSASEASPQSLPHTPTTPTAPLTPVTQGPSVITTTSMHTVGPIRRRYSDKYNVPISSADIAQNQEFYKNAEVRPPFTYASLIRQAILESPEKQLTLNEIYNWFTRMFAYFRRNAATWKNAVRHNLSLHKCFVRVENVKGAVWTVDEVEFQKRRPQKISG
Test: PD-seq (MBP pull-down with sequencing); 20 mM Tris-HCl pH 7.5, 100 mM NaCl, 1.5 mM MgCl2, 0.4 uM protein, 0.1 uM dsDNA library, 30 min, room temperature, amylose pull-down; high values mean tight binding
Conditions: protein: recombinant; tags: His6-MBP; chain copies: 2; dsDNA, one strand shown
Method in brief: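 E. coli-expressed mouse FoxP3 or FoxP1 fragment, N-terminus removed and tagged with His6-MBP, was used at 0.4 µM against 0.1 µM of a Klenow-filled degenerate double-stranded DNA library. After 30 min at room temperature in Tris pH 7.5 buffer with NaCl and MgCl2, complexes were pulled down on amylose resin and washed three times. Binding is pull-down over input reads-per-million enrichment from pooled replicates of the proteinase K-released, PCR-barcoded, Illumina-sequenced DNA.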

Sequence | binding signal
GATGATTGTTCTCCCAGCTGATGAATTTATTGGATCGAGTAAACAAATTTTCCTAATCTTTCTGTTCAAGCGCCATCTAC | 0.91 RPM ratio (pull-down/input)
GATGATTGTTCTCCCAGCTGATGAATTCACGCATTCGAGTAAACAAATTTTCCTAATCTTTCTGTTCAAGCGCCATCTAC | 1.3 RPM ratio (pull-down/input)
GATGATTGTTCTCCCAGCTGATGAATTCCTACCGTCGAGTAAACAAATTTTCCTAATCTTTCTGTTCAAGCGCCATCTAC | 0.731 RPM ratio (pull-down/input)
GATGATTGTTCTCCCAGCTGATGAATTAATCCCCTCGAGTAAACAAATTTTCCTAATCTTTCTGTTCAAGCGCCATCTAC | 0.94 RPM ratio (pull-down/input)
GATGATTGTTCTCCCAGCTGATGAATTATTCTGGTCGAGTAAACAAATTTTCCTAATCTTTCTGTTCAAGCGCCATCTAC | 1.04 RPM ratio (pull-down/input)
GATGATTGTTCTCCCAGCTGATGAATTAGAGTACTCGAGTAAACAAATTTTCCTAATCTTTCTGTTCAAGCGCCATCTAC | 0.976 RPM ratio (pull-down/input)
GATGATTGTTCTCCCAGCTGATGAATTCGGAGTCTCGAGTAAACAAATTTTCCTAATCTTTCTGTTCAAGCGCCATCTAC | 0.77 RPM ratio (pull-down/input)
GATGATTGTTCTCCCAGCTGATGAATTTATTTGTTCGAGTAAACAAATTTTCCTAATCTTTCTGTTCAAGCGCCATCTAC | 2.15 RPM ratio (pull-down/input)
GATGATTGTTCTCCCAGCTGATGAATTTTCAGGATCGAGTAAACAAATTTTCCTAATCTTTCTGTTCAAGCGCCATCTAC | 0.888 RPM ratio (pull-down/input)
GATGATTGTTCTCCCAGCTGATGAATTAATCTCATCGAGTAAACAAATTTTCCTAATCTTTCTGTTCAAGCGCCATCTAC | 0.98 RPM ratio (pull-down/input)
GATGATTGTTCTCCCAGCTGATGAATTTGTTTCGTCGAGTAAACAAATTTTCCTAATCTTTCTGTTCAAGCGCCATCTAC | 1.3 RPM ratio (pull-down/input)
GATGATTGTTCTCCCAGCTGATGAATTCTTAGCCTCGAGTAAACAAATTTTCCTAATCTTTCTGTTCAAGCGCCATCTAC | 0.914 RPM ratio (pull-down/input)
GATGATTGTTCTCCCAGCTGATGAATTTATGTGATCGAGTAAACAAATTTTCCTAATCTTTCTGTTCAAGCGCCATCTAC | 1.21 RPM ratio (pull-down/input)
GATGATTGTTCTCCCAGCTGATGAATTCTGACTCTCGAGTAAACAAATTTTCCTAATCTTTCTGTTCAAGCGCCATCTAC | 0.804 RPM ratio (pull-down/input)
GATGATTGTTCTCCCAGCTGATGAATTCCTTTCGTCGAGTAAACAAATTTTCCTAATCTTTCTGTTCAAGCGCCATCTAC | 0.882 RPM ratio (pull-down/input)
GATGATTGTTCTCCCAGCTGATGAATTAGTGACGTCGAGTAAACAAATTTTCCTAATCTTTCTGTTCAAGCGCCATCTAC | 1 RPM ratio (pull-down/input)
GATGATTGTTCTCCCAGCTGATGAATTGTGCGCGTCGAGTAAACAAATTTTCCTAATCTTTCTGTTCAAGCGCCATCTAC | 1.12 RPM ratio (pull-down/input)
GATGATTGTTCTCCCAGCTGATGAATTAACCTATTCGAGTAAACAAATTTTCCTAATCTTTCTGTTCAAGCGCCATCTAC | 0.942 RPM ratio (pull-down/input)
GATGATTGTTCTCCCAGCTGATGAATTCCGAGCGTCGAGTAAACAAATTTTCCTAATCTTTCTGTTCAAGCGCCATCTAC | 0.803 RPM ratio (pull-down/input)
GATGATTGTTCTCCCAGCTGATGAATTGCATAAGTCGAGTAAACAAATTTTCCTAATCTTTCTGTTCAAGCGCCATCTAC | 1.22 RPM ratio (pull-down/input)

Sequence | binding signal
GATGATTGTTCTCCCAGCTGATGAATTGTTACAATCGAGTAAACAAATTTTCCTAATCTTTCTGTTCAAGCGCCATCTAC | 1.61 RPM ratio (pull-down/input)
GATGATTGTTCTCCCAGCTGATGAATTGAATTTCTCGAGTAAACAAATTTTCCTAATCTTTCTGTTCAAGCGCCATCTAC | 0.851 RPM ratio (pull-down/input)
GATGATTGTTCTCCCAGCTGATGAATTGAAGCATTCGAGTAAACAAATTTTCCTAATCTTTCTGTTCAAGCGCCATCTAC | 1.01 RPM ratio (pull-down/input)
GATGATTGTTCTCCCAGCTGATGAATTGCACAAGTCGAGTAAACAAATTTTCCTAATCTTTCTGTTCAAGCGCCATCTAC | 1.13 RPM ratio (pull-down/input)
GATGATTGTTCTCCCAGCTGATGAATTAGAGGATTCGAGTAAACAAATTTTCCTAATCTTTCTGTTCAAGCGCCATCTAC | 0.94 RPM ratio (pull-down/input)
GATGATTGTTCTCCCAGCTGATGAATTAGGCCCCTCGAGTAAACAAATTTTCCTAATCTTTCTGTTCAAGCGCCATCTAC | 0.821 RPM ratio (pull-down/input)
GATGATTGTTCTCCCAGCTGATGAATTCCATCCATCGAGTAAACAAATTTTCCTAATCTTTCTGTTCAAGCGCCATCTAC | 0.866 RPM ratio (pull-down/input)
GATGATTGTTCTCCCAGCTGATGAATTGCACCTTTCGAGTAAACAAATTTTCCTAATCTTTCTGTTCAAGCGCCATCTAC | 1.19 RPM ratio (pull-down/input)
GATGATTGTTCTCCCAGCTGATGAATTACTTATTTCGAGTAAACAAATTTTCCTAATCTTTCTGTTCAAGCGCCATCTAC | 1.38 RPM ratio (pull-down/input)
GATGATTGTTCTCCCAGCTGATGAATTGCAACTTTCGAGTAAACAAATTTTCCTAATCTTTCTGTTCAAGCGCCATCTAC | 1.62 RPM ratio (pull-down/input)
GATGATTGTTCTCCCAGCTGATGAATTTCGATAATCGAGTAAACAAATTTTCCTAATCTTTCTGTTCAAGCGCCATCTAC | 1.17 RPM ratio (pull-down/input)
GATGATTGTTCTCCCAGCTGATGAATTGGCAAGCTCGAGTAAACAAATTTTCCTAATCTTTCTGTTCAAGCGCCATCTAC | 0.832 RPM ratio (pull-down/input)
GATGATTGTTCTCCCAGCTGATGAATTGTGCGCATCGAGTAAACAAATTTTCCTAATCTTTCTGTTCAAGCGCCATCTAC | 1.34 RPM ratio (pull-down/input)
GATGATTGTTCTCCCAGCTGATGAATTAAGCTAATCGAGTAAACAAATTTTCCTAATCTTTCTGTTCAAGCGCCATCTAC | 1.06 RPM ratio (pull-down/input)
GATGATTGTTCTCCCAGCTGATGAATTATGATATTCGAGTAAACAAATTTTCCTAATCTTTCTGTTCAAGCGCCATCTAC | 1.24 RPM ratio (pull-down/input)
GATGATTGTTCTCCCAGCTGATGAATTACGTTTCTCGAGTAAACAAATTTTCCTAATCTTTCTGTTCAAGCGCCATCTAC | 1.01 RPM ratio (pull-down/input)
GATGATTGTTCTCCCAGCTGATGAATTCAGGATATCGAGTAAACAAATTTTCCTAATCTTTCTGTTCAAGCGCCATCTAC | 0.816 RPM ratio (pull-down/input)
GATGATTGTTCTCCCAGCTGATGAATTCTATCGCTCGAGTAAACAAATTTTCCTAATCTTTCTGTTCAAGCGCCATCTAC | 0.851 RPM ratio (pull-down/input)
GATGATTGTTCTCCCAGCTGATGAATTTTCAGTGTCGAGTAAACAAATTTTCCTAATCTTTCTGTTCAAGCGCCATCTAC | 0.89 RPM ratio (pull-down/input)
GATGATTGTTCTCCCAGCTGATGAATTGCCAGAATCGAGTAAACAAATTTTCCTAATCTTTCTGTTCAAGCGCCATCTAC | 1.07 RPM ratio (pull-down/input)
